Laboratory results published in PubChem BioAssay (NCATS).
The inconclusive results got no clear call from the source; some entries with a clear call stand among them for comparison. For part of these data: Potencies of inconclusive entries are doubtful fits and often do not repeat. Calls of active or inactive are those of the source. Unless noted, calls follow the shape of the dose curve; as a rule, active = well fitted curve in the direction sought with a large enough effect; inconclusive = small, poorly fitted or top-dose-only effect, or another doubt; inactive = no such curve, though single readings can be large; an effect the other way counts as inactive or inconclusive.

Key:
[1] = qHTS of pediatric cancer cell lines to identify multiple opportunities for drug repurposing: Primary screen for SJ-GBM2 cells (AID 1347091); also: potency is read from the fitted curve at half-maximal effect
Method in brief: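 Viability measured as metabolically active cells via CellTiter-Glo luminescence following 48 hours of compound exposure, 11-point dilutions in confirmatory testing. 500-1,000 cells/well plated 5 hours before dosing; controls were DMSO and 2.3 µM bortezomib.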

[2] = qHTS of pediatric cancer cell lines to identify multiple opportunities for drug repurposing: Primary screen for SK-N-MC cells (AID 1347093); conditions: SK-N-MC viability, CellTiter-Glo luminescence, 48 h; activity change, negative = cytotoxic: at 46 µM (top of the series); also: potency is read from the fitted curve at half-maximal effect
Method in brief: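 Metabolically active cells were quantified by ATP-dependent luminescence (CellTiter-Glo, 15 min at room temperature) following 48 h treatment. Cells had been plated at 500-1,000 per well and settled for 5 h beforehand.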

[3] = qHTS of pediatric cancer cell lines to identify multiple opportunities for drug repurposing: Primary screen for BT-12 cells (AID 1347101); also: potency is read from the fitted curve at half-maximal effect; nearly all actives have a fitted effect of over 25% in size
Method in brief: (§1)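 Cells (500-1,000/well) rested 5 h, then received compounds for 48 h; metabolically active cells were measured by CellTiter-Glo luminescence. Final concentrations spanned up to 46 µM (MIPE, 11-point) or 0.59 nM-46 µM (NPC, 8-point) in primary screens, 11-point in follow-ups.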

[4] = qHTS of pediatric cancer cell lines to identify multiple opportunities for drug repurposing: Primary screen for OHS-50 cells (AID 1347103); also: nearly all actives have a fitted effect of over 40% in size; also: potency is read from the fitted curve at half-maximal effect
Method in brief: as §1

[5] = test system: Zika virus NS2B-NS3 protease (unlinked complex); experiment: Primary screen GU Rhodamine qHTS for Zika virus inhibitors: Unlinked NS2B-NS3 protease assay (AID 1347159); also: nearly all actives have a fitted effect of over 60% in size; also: potency is read from the fitted curve at half-maximal effect
Method in brief: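 Percent inhibition came from the 15-min rise in Rhodamine110 fluorescence (1.5 microM substrate, ~15% conversion), normalized to no-inhibitor and no-enzyme wells and Hill-fitted. Unlinked protease, 25 nM, pH 8.0 Tris buffer; compounds up to 114 microM, 15-min preincubation.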

[6] = biological target: Cytochrome P450 2D6 (Homo sapiens) (UniProt P10635); experiment: Cytochrome P450 family 2 subfamily D member 6 (CYP2D6) small molecule antagonists: luciferase biochemical (cell-free) qHTS assay (AID 1645840; active = well fitted curve in the direction sought with a large enough effect in the repeat runs; inconclusive = weak or mixed curves; inactive = no such curve, though single readings can be large; an effect the other way counts as inactive or inconclusive; also: nearly all actives have a fitted effect of over 55% in size; also: potency is read from the fitted curve at half-maximal effect)
Method in brief: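 P450-Glo CYP2D6 system: proluciferin substrate converted by enzyme to luciferin, read by luminescence proportional to activity. Enzyme-substrate mix with compound 10 min at room temperature, then NADPH regeneration 1 h before detection reagent.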

[7] = biological target: Cytochrome P450 3A4 (Homo sapiens) (UniProt P08684); experiment: Cytochrome P450 family 3 subfamily A member 4 (CYP3A4) small molecule antagonists: luciferase qHTS assay (AID 1645841; active = well fitted curve in the direction sought with a large enough effect in the repeat runs; inconclusive = weak or mixed curves; inactive = no such curve, though single readings can be large; an effect the other way counts as inactive or inconclusive; also: nearly all actives have a fitted effect of over 45% in size; also: potency is read from the fitted curve at half-maximal effect)
Method in brief: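 P450-Glo CYP3A4 enzyme with proluciferin substrate preincubated 10 min with compound at room temperature, then NADPH regeneration 1 h. Luciferin detection reagent added for 20 min; luminescence recorded. Ketoconazole positive control.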

[8] = test system: MKL-2; experiment: qHTS assay to identify novel small-molecules to repurpose for Merkel cell carcinoma treatment (AID 1296009); conditions: MCC and control cell lines, CellTiter-Glo viability, 72 h; activity change, negative = cytotoxicity: at 46 µM (top of the series); also: potency is read from the fitted curve at half-maximal effect; nearly all actives have a fitted effect of over 60% in size
Method in brief: (§2)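 CellTiter-Glo luminescence after 72 hr compound exposure at 37 degree celsius gave cell viability. Libraries NPC and MIPE were run as 8- and 11-point dose responses; RLUs normalized to DMSO (negative) and no-cell (cytotoxicity) controls.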

[9] = test system: UISO; experiment: as above; conditions: MCC and control cell lines, CellTiter-Glo viability, 72 h; activity change, negative = cytotoxicity: at 46 µM (top of the series)
Method in brief: as §2

[10] = qHTS of pediatric cancer cell lines to identify multiple opportunities for drug repurposing: Primary screen for NB1643 cells (AID 1347099); also: nearly all actives have a fitted effect of over 50% in size; also: potency is read from the fitted curve at half-maximal effect
Method in brief: (§3)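 ATP-based luminescence (CellTiter-Glo) quantifies viability after a 48-hour exposure. Compounds are dosed across 8 or 11 final concentrations; DMSO and 2.3 µM bortezomib serve as controls.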

[11] = A High-Content qHTS Against Drug Library for the Identification of Small Molecules that Inhibit DYT1 Early Onset Primary Dystonia-Associated Cell Pathology (AID 1645839; calls by dose curve; also: potency is read from the fitted curve at half-maximal effect)
Method in brief: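 Cells were seeded and left for 24 h, then dosed with compound alongside tetracycline induction of mutant EGFP-TorsinA. They were incubated for 48 h, fixed in 4% paraformaldehyde, permeabilized and imaged for mislocalization (%pathology) and cell count.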

[12] = test system: WaGa; experiment: qHTS assay to identify novel small-molecules to repurpose for Merkel cell carcinoma treatment (AID 1296009); conditions: MCC and control cell lines, CellTiter-Glo viability, 72 h; series mostly up to 46 µM; also: potency is read from the fitted curve at half-maximal effect; nearly all actives have a fitted effect of over 60% in size
Method in brief: as §2

[13] = qHTS of pediatric cancer cell lines to identify multiple opportunities for drug repurposing: Primary screen for Saos-2 cells (AID 1347097); conditions: Saos-2 viability, CellTiter-Glo ATP luminescence, 48 h; activity change, negative = cytotoxic: at 46 µM (top of the series); also: nearly all actives have a fitted effect of over 40% in size
Method in brief: as §3

[14] = Primary qHTS for small molecule stabilizers of the endoplasmic reticulum resident proteome: Secreted ER Calcium Modulated Protein (SERCaMP) assay (AID 1508630); conditions: SH-SY5Y GLuc-SERCaMP (Gaussia luciferase released on ER calcium loss) secretion, thapsigargin, luminescence; series mostly up to 38.4 µM
Method in brief: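 The SH-SY5Y reporter protocol was run at 3 concentrations up to 38.3 uM (primary) or 11 concentrations (follow-up): 16 h compound, 100 nM thapsigargin for 4 h, then extracellular luciferase luminescence.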

[15] = biological target: Cytochrome P450 2C9 (Homo sapiens) (UniProt P11712); experiment: Cytochrome P450 family 2 subfamily C member 9 (CYP2C9) small molecule antagonists: luciferase biochemical (cell-free) qHTS assay (AID 1645842; active = well fitted curve in the direction sought with a large enough effect in the repeat runs; inconclusive = weak or mixed curves; inactive = no such curve, though single readings can be large; an effect the other way counts as inactive or inconclusive; also: nearly all actives have a fitted effect of over 55% in size)
Method in brief: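 P450-Glo CYP2C9 system: proluciferin substrate with enzyme in mix containing 0.4% BSA, 10 min at room temperature, then NADPH regeneration solution added and incubated 1 h at 37C. Detection reagent stopped reaction; luminescence read after 20 min as RLU.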

Measured: Potency
Tags tell the direction and shape of the fitted curve.

Sequence of UniProt P10635 (P10635 whole entry, looked up): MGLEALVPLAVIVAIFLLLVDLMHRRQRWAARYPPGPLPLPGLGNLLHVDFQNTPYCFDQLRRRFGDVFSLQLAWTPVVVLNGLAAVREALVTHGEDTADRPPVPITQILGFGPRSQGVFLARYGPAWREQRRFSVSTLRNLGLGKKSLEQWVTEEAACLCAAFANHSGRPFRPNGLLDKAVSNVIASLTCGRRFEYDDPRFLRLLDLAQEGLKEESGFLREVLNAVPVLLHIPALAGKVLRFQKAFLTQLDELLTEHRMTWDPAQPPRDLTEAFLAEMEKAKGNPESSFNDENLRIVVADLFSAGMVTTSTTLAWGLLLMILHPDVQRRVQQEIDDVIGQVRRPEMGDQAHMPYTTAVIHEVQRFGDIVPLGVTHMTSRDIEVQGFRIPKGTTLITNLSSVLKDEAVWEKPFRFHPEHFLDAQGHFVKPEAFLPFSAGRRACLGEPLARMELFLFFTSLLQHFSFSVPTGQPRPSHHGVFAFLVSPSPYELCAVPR
Sequence of UniProt P08684 (P08684 whole entry, looked up): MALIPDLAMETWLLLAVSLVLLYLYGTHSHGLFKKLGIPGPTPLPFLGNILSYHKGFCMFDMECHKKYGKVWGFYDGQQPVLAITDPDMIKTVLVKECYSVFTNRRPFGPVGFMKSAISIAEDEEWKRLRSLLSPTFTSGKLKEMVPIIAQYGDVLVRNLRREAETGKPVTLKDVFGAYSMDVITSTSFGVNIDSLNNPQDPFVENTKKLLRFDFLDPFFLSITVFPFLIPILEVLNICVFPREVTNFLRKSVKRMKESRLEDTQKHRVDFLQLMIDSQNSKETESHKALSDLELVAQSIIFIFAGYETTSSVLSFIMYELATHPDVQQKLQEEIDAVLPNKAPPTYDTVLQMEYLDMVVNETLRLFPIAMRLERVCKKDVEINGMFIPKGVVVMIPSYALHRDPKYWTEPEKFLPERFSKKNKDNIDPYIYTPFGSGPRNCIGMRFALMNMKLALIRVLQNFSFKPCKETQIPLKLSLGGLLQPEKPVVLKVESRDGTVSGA
Sequence of UniProt P11712 (P11712 whole entry, looked up): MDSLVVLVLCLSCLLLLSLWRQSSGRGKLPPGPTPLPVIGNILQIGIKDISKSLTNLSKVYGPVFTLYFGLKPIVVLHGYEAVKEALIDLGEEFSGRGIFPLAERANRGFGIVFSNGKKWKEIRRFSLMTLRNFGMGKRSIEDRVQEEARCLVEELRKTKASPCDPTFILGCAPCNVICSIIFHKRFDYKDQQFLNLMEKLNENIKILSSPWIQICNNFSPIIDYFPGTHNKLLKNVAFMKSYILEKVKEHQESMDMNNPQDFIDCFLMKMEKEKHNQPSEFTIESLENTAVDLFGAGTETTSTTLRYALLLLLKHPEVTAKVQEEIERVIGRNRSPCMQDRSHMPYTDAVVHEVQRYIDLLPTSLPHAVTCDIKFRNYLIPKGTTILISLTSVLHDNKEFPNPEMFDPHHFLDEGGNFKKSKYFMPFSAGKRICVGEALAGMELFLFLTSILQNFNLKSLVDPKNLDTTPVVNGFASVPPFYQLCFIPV

FC(F)(F)c1ccc(Nc2nc3ccc(Oc4ccnc(-c5ncc(C(F)(F)F)[nH]5)c4)cc3[nH]2)cc1
active: [1] 16.6 µM | [2] 4.18 µM | [4] 24.3 µM
inconclusive: [3] 21.7 µM [cytotoxic, partial curve] | [5] 63.1 µM [inhibitor, partial curve, poor fit] | [6] 30.1 µM [inhibitor, single point] | [7] 37.9 µM [falling, single point] | [8] 13.2 µM [inhibitor, partial curve] | [9] 29.6 µM [inhibitor, single point]

Cn1c(=O)c(F)c(Nc2ccc(I)cc2F)c2c(=O)n(CC(O)CO)cnc21 (stereo not given)
inconclusive: [6] 26.8 µM [inhibitor, single point]

C=C[C@]1(C)C[C@H](O)[C@H]2C(=C)C(=O)O[C@@H]2[C@H]1C(=C)CO
inactive: [5]

CCCCOc1ccc(S(=O)(=O)n2c(C)nc3ccccc32)cc1
inconclusive: [5] 39.8 µM [inhibitor, single point]

COc1ccc(/C=C/C(=O)c2ccc(OC)cc2OC)cc1
active: [8] 5.31 µM
inconclusive: [1] 29.9 µM [cytotoxic, single point] | [2] 33.5 µM [cytotoxic, single point] | [10] 26.6 µM [cytotoxic, single point] | [3] 13.8 µM [cytotoxic, partial curve, poor fit] | [4] 38.9 µM [cytotoxic, single point] | [11] 22.4 µM [inhibitor, single point] | [6] 13.8 µM [inhibitor, partial curve] | [9] 26.6 µM [inhibitor, single point] | [12] 26.6 µM [inhibitor, single point]

CCCCCCCCCCCCCC(=O)OC(C)C
inactive: [13] | [10] | [4] | [14] | [6]

CCN1CCC[C@@H]1CNC(=O)c1ccc2c(c1)NC(=O)c1cccc(C)c1S2
inactive: [7] | [15]
inconclusive: [6] 37.9 µM [inhibitor, single point]
